± gives the standard deviation of the averaged measurements. This is one part of the list.

The subject of this test is PfAP2-I AP2 domain 3 (GST-tagged). In words: gcPBM binding intensity (ln(normalized median fluorescence intensity)); higher = stronger DNA binding. The method in brief:
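Each value is the highest Masliner-normalised natural-log median intensity across replicate spots of either orientation of a probe. The probes were primer-extended double-stranded 36-bp intergenic genomic sequences on an Agilent 4 × 180k array, alongside negative controls, exposed for 1 h to GST-tagged P. falciparum DNA-binding domains expressed in E. coli. Bound protein was picked up with Alexa488 anti-GST antibody and scanned at 488 nm.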
Turning to “ATATATAAATATAGCATACACACAAAAAAATAAAAT [CACACA_site2332]”, the “gcPBM binding intensity (ln)” value amounted to 7.84 ± 0.57.

Regarding “ATATACATATTTTTGACACACATTAGGAAAATATAT [CACACA_site4123]”, the “gcPBM binding intensity (ln)” value stood at 7.79 ± 0.57.

Take “ATGTAATAAATACTACGTACATATATATGTGTTAAT [XGTACX_site3265]”: the “gcPBM binding intensity (ln)” value was determined as 7.85 ± 0.47.

With “TATTATTTATATGATACACACGTACATATACACATA [CACACA_site9275]”, the “gcPBM binding intensity (ln)” value was found to be 7.81 ± 0.41.

Turning to “TAACAAATATTATTTTGTACATAATATATATATATA [XGTACX_site6898]”, the “gcPBM binding intensity (ln)” value was 8.88 ± 0.54.

Regarding AATACACACCTGTGGGTGCTTATAATAAGCCACAAA, the “gcPBM binding intensity (ln)” value is 10.2 ± 0.26.

For “TATTTTTTTATTTATTGTACTTTAAAAAAAATTAAA [XGTACX_site6167]”, the “gcPBM binding intensity (ln)” value came to 7.97 ± 0.4.

With “ATATATTTATATTATACACACAAAAATATTTTGTAT [CACACA_site6262]”, the “gcPBM binding intensity (ln)” value was 7.61 ± 0.57.

For the sequence “TATATATATTAATTTATTTATTTGTTTATTTATTTA [CACACA_negctrl_site185]”, the “gcPBM binding intensity (ln)” value was 7.75 ± 0.53.

Consider “TTATAAAAATATTACGCACACACAAACTTATTCATT [CACACA_site1970]”, for which the “gcPBM binding intensity (ln)” value was 8.87 ± 0.042.

For the sequence “ATATAATAATATTATACATGCAAAATATGTTCTTCA [TGCATGCA_site115]”, the “gcPBM binding intensity (ln)” value was 7.83 ± 0.64.

For “ATCGCATATACATTATATTTTATAATAATTATTTTT [GTGCAC_negctrl_site48]”, the “gcPBM binding intensity (ln)” value came out at 8.03 ± 0.48.

With “AGACTATCATTTTTTTAACACACAAAAAAAATAAAA [CACACA_site9173]”, the “gcPBM binding intensity (ln)” value stood at 7.86 ± 0.39.

As for “TGTATACACATATGTACACACATATAGATGTATATG [CACACA_site7447]”, the “gcPBM binding intensity (ln)” value is 7.77 ± 0.14.

Take “ATAATGTATATTATTGCACACATATATAAAATTATG [CACACA_site8280]”: the “gcPBM binding intensity (ln)” value was determined as 10 ± 0.64.

As to “TAAATAAATACATACACACACATACCTATATTTATA [CACACA_site7466]”, the “gcPBM binding intensity (ln)” value was 7.71 ± 0.47.

For the sequence “AATATAAATATAAATATAAATATATATATATATATA [TGCATGCA_negctrl_site603]”, the “gcPBM binding intensity (ln)” value came out at 9.12 ± 0.61.

Consider “TTTTATAAAAACAAAAACAAAGGCACTTTCTAAAGA [XGTACX_negctrl_site130]”, for which the “gcPBM binding intensity (ln)” value is 8.63 ± 0.28.

Take “ATATAAAATATGAGTAGTACATATTTTCTCATCTTA [XGTACX_site8595]”: the “gcPBM binding intensity (ln)” value worked out at 7.55 ± 0.38.

With “GGGAAACGATTTAATACACACACGTATTATATATAT [CACACA_site1160]”, the “gcPBM binding intensity (ln)” value was 8.48 ± 0.59.

“CACAAAAGTAAGCACGCACACACAACATGAAATAAA [CACACA_site7938]”: the “gcPBM binding intensity (ln)” value is 8.22 ± 0.34.

For the sequence “CATTTTTTGTAAAATCGTACATATACATAAAGTGGT [XGTACX_site3423]”, the “gcPBM binding intensity (ln)” value worked out at 7.89 ± 0.35.

On to “AAAGACAAAAGGAATTGTACATAATATATAAAATAT [XGTACX_site2923]”, for which the “gcPBM binding intensity (ln)” value is 7.58 ± 0.71.

Consider “AATTTTATTTAAAGTGCATGTAAAATTAAAACTTTT [TGCATGCA_site989]”, for which the “gcPBM binding intensity (ln)” value stood at 8.88 ± 0.43.

With “TATGAATTTATCTACAACATTTGAAATAAATTAAAA [CACACA_negctrl_site79]”, the “gcPBM binding intensity (ln)” value was 7.48 ± 0.37.

Regarding “TATTTGGGTATTTTTACACACATTAATATATATATA [CACACA_site9114]”, the “gcPBM binding intensity (ln)” value came out at 8.925 ± 0.049.

In the case of “AAAGATAATAATATGCGTACATAAAAATATATGATA [XGTACX_site6884]”, the “gcPBM binding intensity (ln)” value was 7.91 ± 0.29.

Consider “ATAATGGAAAAAAAATATAATAATACGAAATAGGAA [TGCATGCA_negctrl_site64]”, for which the “gcPBM binding intensity (ln)” value was 8.06 ± 0.5.

On to “TTTTTTTAATAAATTTATAACAATATGATAGGTGAC [CACACA_negctrl_site1783]”, for which the “gcPBM binding intensity (ln)” value came to 8.21 ± 0.45.

Regarding “TGAATCAATTGTTGCTGTACATAAGGTATACAATAA [XGTACX_site5127]”, the “gcPBM binding intensity (ln)” value came out at 7.97 ± 0.52.

For “AGTTAAATGAATCAATACATAAATATGTATATATAT [TGCATGCA_negctrl_site539]”, the “gcPBM binding intensity (ln)” value stood at 8.34 ± 0.73.

For “TAATTACCATATGGTACACACATATATATCTGTATA [CACACA_site5849]”, the “gcPBM binding intensity (ln)” value was found to be 8.01 ± 0.4.

On to “AATAATATCTGAAAATGTACATTTTATTATAAACAT [XGTACX_site8441]”, for which the “gcPBM binding intensity (ln)” value worked out at 7.79 ± 0.59.

On to “AAGAAGAGTTATTGTAGTACATTTTTAAATGTAATA [XGTACX_site7664]”, for which the “gcPBM binding intensity (ln)” value turned out to be 7.73 ± 0.34.

For “AAGAATTATAGAAACACACATACATACAGACATACA [CACACA_site1943]”, the “gcPBM binding intensity (ln)” value amounted to 7.79 ± 0.34.

Take “ATGCAAACTAAAAGACGTACAGAAAAGTATCATACT [XGTACX_site8766]”: the “gcPBM binding intensity (ln)” value stood at 7.88 ± 0.61.

As for “TGATTATTTTATATTTGTACACATATCATATAAAAA [XGTACX_site5868]”, the “gcPBM binding intensity (ln)” value is 8.1 ± 0.26.

Consider “ACATAATATTGAAGAAGTACAAATTTTATTTATTAT [XGTACX_site4113]”, for which the “gcPBM binding intensity (ln)” value was 7.68 ± 0.49.

For the sequence “ACGTTTTTGAGTAGTACACACACAATAAGGATGGAT [CACACA_site9044]”, the “gcPBM binding intensity (ln)” value was found to be 8.36 ± 0.54.

With “TCATTATTATATAATTGTACATAATAATTATATCCA [XGTACX_site1801]”, the “gcPBM binding intensity (ln)” value amounted to 7.62 ± 0.39.

Consider “AATATAATATATATTAGTACATATATATATATATAT [XGTACX_site870]”, for which the “gcPBM binding intensity (ln)” value is 9.3 ± 0.66.

Consider “CCTCATATTATAGACACACACAAAAAAAATAAAAAA [CACACA_site180]”, for which the “gcPBM binding intensity (ln)” value was 7.82 ± 0.44.

For “ATGTATGTGTATATATGTACATAATATATATCTTTT [XGTACX_site8666]”, the “gcPBM binding intensity (ln)” value is 7.92 ± 0.35.

“AGTACATTATAGAATACACACCTATACATTTATATA [CACACA_site6391]”: the “gcPBM binding intensity (ln)” value came to 7.71 ± 0.57.

Source of the values: the supplement of paper PMC11417369.
